In PMC4336329 (PLoS ONE, 2015):
Hit rate of the full screen: of about 310,000 compounds, about 2,200 (0.71%) showed an effect of 50% or more. Effects have a minus sign here. This is one part of the list.

target: human ether-à-go-go-related gene (hERG) potassium channel (human, UniProt Q12809); experiment: primary screen, population patch clamp on CHO cells stably expressing hERG
Sequence (Q12809 whole entry, looked up): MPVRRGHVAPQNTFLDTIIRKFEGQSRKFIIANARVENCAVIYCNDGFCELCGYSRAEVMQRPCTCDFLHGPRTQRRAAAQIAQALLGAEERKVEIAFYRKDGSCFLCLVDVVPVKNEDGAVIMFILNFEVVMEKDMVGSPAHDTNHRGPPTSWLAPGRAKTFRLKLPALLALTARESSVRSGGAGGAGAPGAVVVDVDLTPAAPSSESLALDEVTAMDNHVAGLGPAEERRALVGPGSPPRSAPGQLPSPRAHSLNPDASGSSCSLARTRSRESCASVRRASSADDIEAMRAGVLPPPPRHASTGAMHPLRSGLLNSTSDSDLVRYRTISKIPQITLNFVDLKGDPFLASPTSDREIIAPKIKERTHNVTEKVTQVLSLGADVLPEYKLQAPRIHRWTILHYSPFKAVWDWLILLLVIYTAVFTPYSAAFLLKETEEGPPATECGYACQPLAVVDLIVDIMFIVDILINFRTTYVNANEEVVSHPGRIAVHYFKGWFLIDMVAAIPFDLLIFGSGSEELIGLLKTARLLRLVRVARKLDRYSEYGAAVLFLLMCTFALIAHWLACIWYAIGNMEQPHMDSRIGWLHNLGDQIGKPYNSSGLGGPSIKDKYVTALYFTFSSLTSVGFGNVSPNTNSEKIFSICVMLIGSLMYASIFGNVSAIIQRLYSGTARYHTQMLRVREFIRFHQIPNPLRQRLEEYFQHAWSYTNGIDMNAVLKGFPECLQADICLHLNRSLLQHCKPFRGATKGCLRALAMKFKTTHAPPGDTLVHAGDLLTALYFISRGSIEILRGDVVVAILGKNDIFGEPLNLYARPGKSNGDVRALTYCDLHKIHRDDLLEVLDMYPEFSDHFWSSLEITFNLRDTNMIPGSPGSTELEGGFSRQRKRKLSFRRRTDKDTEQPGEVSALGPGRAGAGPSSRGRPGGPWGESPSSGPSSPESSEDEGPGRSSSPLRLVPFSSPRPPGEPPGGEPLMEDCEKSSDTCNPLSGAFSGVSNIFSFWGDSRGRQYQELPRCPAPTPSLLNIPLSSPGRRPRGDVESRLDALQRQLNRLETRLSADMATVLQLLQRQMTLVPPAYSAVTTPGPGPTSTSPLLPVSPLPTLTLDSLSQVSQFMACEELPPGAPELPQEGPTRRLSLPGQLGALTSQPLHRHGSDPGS

SMILES | hERG current change (%, negative = inhibition) at 1uM
FC(F)(F)c1cccc(Cn2cnc(NC(=S)NCCc3ccccc3)n2)c1 | 5.2%
COc1ccccc1C(=O)C1CCCN(C(=O)CCn2cnnn2)C1 (centres unmarked) | 8.14%
COc1ccc2c(c1)CCc1c(C(=O)NCc3ccco3)noc1-2 | 7.76%
CCOc1cc(C(=O)NC(CC(=O)O)c2ccc(OC3CCCC3)cc2)cc(OCC)c1OCC (centres unmarked) | 17.9%
CCC[C@H]1COCCS(=O)(=O)N1Cc1ccc(Br)cc1 | -3.31%
O=C(NCc1ccc2c(c1)OCO2)C1CC(=O)N(c2ccc(F)cc2)C1 (centres unmarked) | -10.6%
C=CCc1cc(Cl)ccc1OCCNCCCOC.O=C(O)C(=O)O | -8.81%
CC(=O)c1nn(-c2ccc(Cl)cc2)cc1C(=O)c1ccc(C)cc1 | 10%
NC(CO)(CO)COCc1ccccc1 | 8.4%
O=C(NCc1cccs1)c1cnc(Cl)c(Cl)c1 | 10.9%
COCCn1c(SCC(=O)Nc2cc(C)on2)nnc1C(C)C | 12.1%
COc1cc(C=C2C(=O)OC(C)(C)OC2=O)cc(Cl)c1OCC(=O)Nc1ccccc1 | 0.325%
Cc1nc2ccccc2cc1C(=O)N/N=C/c1ccco1 | 13.9%
COc1cc(CNCCN(C)C)c(Br)cc1OC1CCCC1.Cl | 23.9%
O=C(C1CCCN(S(=O)(=O)c2cnc[nH]2)C1)N1CCN(c2ccc(Cl)cc2)CC1 (centres unmarked) | -3.65%
O=C(NCCCN1CCN(c2cccc(Cl)c2)CC1)c1ccc(N2CCCC2=O)cc1 | 0.715%
COc1cc([N+](=O)[O-])ccc1NC(=S)Nc1cccc(C(=O)O)c1 | 15.4%
COc1ccc(Cl)cc1NC(=O)Cn1cccc1 | 4.23%
CCN1CCN(C(=O)C2CCN(S(=O)(=O)c3cc(Cl)ccc3Cl)CC2)CC1 | 1.46%
Cc1ccc(OCCC(=O)OCC(=O)NC(=O)NC2CCCC2)cc1 | 10.4%
CCc1ccccc1OCC(=O)NNCC(=O)Nc1cccc(C#N)c1 | 1.23%
COc1cccc(CN(C)Cc2c(O)ccc3ccccc23)c1 | 13.9%
Cc1cc(C(=O)COC(=O)CN(C)S(=O)(=O)c2ccc(Cl)cc2)c(C)n1Cc1cccs1 | -1.92%

SMILES | hERG current change (%, negative = inhibition) at 1uM
O=C(COc1ccc2ccccc2c1)NNC(=O)c1cccs1 | 6.38%
CCOC(=O)C1CCN(C(=O)c2ccccc2NS(=O)(=O)c2ccc(F)c(F)c2)CC1 | 10.3%
CC(C)OCCCNC(=O)c1cc(-c2cccs2)nc2ccccc12 | 4.92%
CCOC(=O)[C@@H]1[C@H]2COc3ccccc3[C@@H]2N2C(=O)N(c3cccc(C)c3)C(=O)[C@]12C | 3.83%
Cn1c(NC(=O)/C=C/c2ccc(Cl)c(Cl)c2)cc(=O)n(C)c1=O | 10.7%
COc1cc(C(=O)Nc2nc(-c3ccc(Cl)cc3)c(C)s2)ccc1OCC(=O)Nc1ccc(F)cc1 | 11.4%
C/C(=N\N1CCN(Cc2ccc(Cl)cc2)CC1)c1ccc(F)cc1 | 6.05%
O=C(NCCc1ccccc1)C(=S)N1CCCCC1 | 14.4%
CC(C)OC(=O)CSc1nc2ccccc2s1 | 13.2%
Cn1c(CN2CCCC2)nc2cc(NC(=O)c3ccco3)ccc21 | 5.36%
CC(C)n1c(O)c(N=NC(=O)Cc2csc(N3CCOCC3)n2)c2ccccc21 | 5.31%
C/C(CCC1CC(C)OC1=O)=N\NC(N)=O (centres unmarked) | 17.2%
CC1=CC(C)[C@H](/C=N/n2c(=O)[nH]c3c([nH]c4ccc(Br)cc43)c2=O)C(C)C1 (some centres unmarked) | 5.8%
O=[N+]([O-])/C(=C\Nc1ccccc1)S(=O)(=O)c1ccccc1 | 8.85%
COCc1cc(C)nc(SCC(=O)NCC2CCCO2)c1C#N (centres unmarked) | 10.1%
O=C(Oc1ccc(/C=N/O)cc1)c1ccccc1 | 5.55%
N#Cc1cc2c(nc1SCc1ccccc1)CCCCC2 | 9.75%
O=C(OCc1cc2ccccc2[nH]c1=O)c1cccnc1 | 13.2%
COc1ccccc1/C=C(/C(=O)OCC(=O)NCc1ccccc1)c1ccccc1 | 8.03%
Nc1nc(-c2ccccc2)nc(-c2ccccc2O)n1 | 10.7%
COc1cccc(-c2nc(CS(=O)(=O)CC(=O)NC3CC3)c(C)o2)c1 | 28.1%
C=C(C)CSc1nnc([C@H](CCSC)NC(=O)OC(C)(C)C)o1 | 9.09%
COc1ccc(S(=O)(=O)NCc2ccco2)cc1C(=O)N1CCOCC1 | 18.4%

SMILES | hERG current change (%, negative = inhibition) at 1uM
CCOc1ccc(N2CC(C(=O)OC)CC2=O)cc1 (centres unmarked) | 3.56%
Cc1ccc(-c2nn(-c3cccc(F)c3)cc2CN(Cc2nccn2C)C(C)C)o1 | 8.2%
CCOC(=O)c1c(C)[nH]c(C(=O)COC(=O)C(C)Oc2ccc(Cl)cc2Cl)c1C (centres unmarked) | 9.35%
COC(=O)c1ccc(COC(=O)c2cccnc2Cl)cc1 | 7.44%
COC(=O)Cn1c(=O)c(C)nc2ccccc21 | 9.09%
C=CCN1C(=O)/C(=C/c2ccc(O)c(OC)c2)S/C1=N/c1nccs1 | -4.95%
NC(=O)C1(NC(=O)[C@@H]2CC3(CC(c4cccc(NC(=O)[C@@H]5CCC(=O)N5)c4)=NO3)CN2C(=O)Cc2ccc(Cl)cc2)CC1 (some centres unmarked) | 22%
Cc1cccc(NC(=S)N2CCN(C(=O)C3CCCO3)CC2)c1 (centres unmarked) | 13.9%
CCOc1ccc(/C(O)=C2\C(=O)C(=O)N(c3ccc(OC)cc3)C2c2ccccc2[N+](=O)[O-])cc1 (centres unmarked) | 1.9%
CCOC(=O)c1ccc(NC(=O)CN2C(=O)CSC(C)C2=O)cc1 (centres unmarked) | 14.1%
O=C(CCCc1nc2ccccc2s1)N1CCN(S(=O)(=O)c2cccs2)CC1 | 0.245%
O=C1c2ccccc2CN1C(CO)Cc1ccccc1 (centres unmarked) | 14%
Cc1cccc(NS(=O)(=O)c2ccc3nc(-c4ccccc4)[nH]c3c2)c1C | 7.69%
CN=c1scc(-c2cccs2)n1/N=C/c1ccc(O)c(O)c1O | 4.88%
COc1ccc(S(=O)(=O)n2nc(OC(=O)c3cccs3)cc2N)cc1 | 2.34%
CCOc1cc(/C=N/O)ccc1OCc1ccc(F)cc1 | 11.9%
N#Cc1cccc(Cn2nnc(-c3ccccc3)n2)c1 | 2.53%
O=C1c2cccnc2C(=O)N1Cc1ccc(S(=O)(=O)NCc2ccco2)s1 | 14.8%
Cc1ccc(N=C(NOC(=O)c2ccccc2)c2nonc2N)c(C)c1 | 8.17%
O=C(Oc1c(Cl)cc(Cl)c2ccccc12)N1CCCC1 | 0.394%
COc1ccc(NC(=S)N2CCN(S(=O)(=O)c3ccc(C)cc3)CC2)cc1 | 18.7%
Cc1c(C(=O)NC(=S)Nc2ccc(N3CCOCC3)cc2)cccc1[N+](=O)[O-] | 7.16%
O=C(Nc1ccc(O)cc1)c1ccc2c(c1)C(=O)N(Cc1ccccc1)C2=O | -3.21%

SMILES | hERG current change (%, negative = inhibition) at 1uM
CC(C)(C)C1CCC2(CC1)CC(=O)c1ccccc1O2 (centres unmarked) | 15.9%
Cc1ccc(NC(=O)CSCC(=O)NCc2ccco2)cc1 | 8.46%
CCCN(CCC)CCNc1c(NC2CCN(C(=O)OCC)CC2)c(=O)c1=O | 15.3%
COc1ccc(C2=NOC(C(=O)Nc3cccnc3Cl)C2)cc1 (centres unmarked) | 10.7%
CN(C)c1ccc(N/C=C/C(=O)c2ccc(F)cc2)cc1 | 18.2%
COC(=O)c1ccc(NC(=O)Nc2ccccc2C)cc1 | 19.6%
O=C(O)C(=O)O.OCCNCCOCCOc1ccccc1-c1ccccc1 | 13.7%
CCOC(=O)CSc1nc(=O)n2cccc(C)c2n1 | 16.2%
COc1ccc(CCN2Cc3c(cccc3[N+](=O)[O-])C2=O)cc1OC | 12.6%
CC(C)OC(=O)C1C(=O)CC(C)(O)C(C(=O)OC(C)C)C1c1cccc([N+](=O)[O-])c1 (centres unmarked) | 18.1%
Br.CCOC(=O)c1c(CSC(=N)N)n(C)c2cc(Br)c(OC(C)=O)cc12 | -36.7%
S=C(Nc1ccc(Cl)cc1)NC1CC2CCC(C1)N2Cc1ccccc1 (centres unmarked) | -32.4%
O=[N+]([O-])c1ccc(-c2nnc(CNC3CCCC3)o2)cc1 | 1.43%
O=C(CSc1nc2ccccc2o1)Nc1ccccc1N1CCCCCC1 | 13.1%
CCC(=O)N/N=C(\C)CC(=O)Nc1ccc2ccccc2c1 | 16.8%
N#Cc1nc(-c2ccccc2Cl)oc1N1CCCCC1 | 5.73%
CC1CCN(S(=O)(=O)c2ccc([N+](=O)[O-])cc2)CC1 | 10.6%
Cc1ccc(S(=O)(=O)N2CCC(C(=O)NC3CCCC3)CC2)cc1Cl | 9.67%
CN(C)CCCNC(=O)C(=O)Nc1cc2c3c(c1)CC(=O)N3CCC2 | 15.7%
O=C(O)C(NS(=O)(=O)c1ccc(F)cc1)c1ccccc1 (centres unmarked) | 10.7%
